Source: a melting point compilation (Tetko et al.; mined from patent text by program, amines drawn as free bases though some values may be those of a salt)

melting point: 196 °C
SMILES: CCOC(=O)C1=C(CC)Nc2n[nH]cc2C1c1cccc2nonc12 (stereo unspecified)
